Data reported in PubChem BioAssay AID493169 (National Center for Advancing Translational Sciences (NCATS), 2011).
Inconclusive means that the source gave no clear call. Such entries were picked first, then a sample of the others. Potencies of inconclusive entries are doubtful fits and often do not repeat. Active and inactive are the calls of the source. Calls come from the whole dose curve; as a rule, active = well fitted inhibition curve with a large enough effect; inconclusive = small, poorly fitted or top-dose-only effect; inactive = flat fitted curve, though single readings scatter.

Assay: CHOP2 Reporter Counterscreen Assay for Inhibitors of Ubiquitin-specific Protease USP2a;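 note: activated enterokinase alone at 50 pM in a cell-free format rather than USP2a or CHOP2; nearly all actives have a fitted effect of over 55% in size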
Settings: purified enterokinase, fluorogenic substrate, 485/531 nm; series mostly up to 38.3 µM
In short: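 Cell-free counterscreen with pre-activated enterokinase alone (50 pM final) in 20mM Tris-HCl pH 8.0, 2mM CaCl2, 2mM beta-mercaptoethanol, 0.05% CHAPS; compound preincubation 30 min RT, reporter substrate 25nM final, fluorescence read after 10 min (Ex 485/Em 531).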
Potency is the fitted concentration of half-maximal effect; tags give direction and shape of the fitted curve.

Which Potency does the source give for `O=C(N/N=C/c1cc(Cl)c(O)c(Cl)c1)c1cc2c(ccc3ccccc32)o1` here?
Its Potency is inconclusive: 20 µM [inhibitor, partial curve, poor fit].

For `O/C=c1\ccc2cccc3nc(C(F)(F)F)nc1c23`, which Potency is on record?
The Potency was inconclusive: 11.2 µM [activator, partial curve, poor fit].

With `COCCNCC(=O)N1CCCCCC1` as the compound, how does the Potency read?
Its Potency is inconclusive: 28.2 µM [inhibitor, single point].

For `O=C(Nc1ccc(Nc2ccncc2)cc1)c1ccc(Nc2ccnc3ccc([N+](=O)[O-])cc23)cc1[N+](=O)[O-]`, which Potency is on record?
Its Potency is inconclusive: 12.6 µM [inhibitor, single point].

For `COc1ccc(-c2nc3cc(NC(=O)Cc4ccc(OC)c(OC)c4)ccc3o2)cc1`, which Potency is on record?
The Potency was inconclusive: 28.2 µM [inhibitor, single point].

For `CC1CCc2c(sc3nc(CN4CCOCC4)nc(NS(=O)(=O)c4cccc([N+](=O)[O-])c4)c23)C1` (stereo unspecified), which Potency is on record?
The Potency was inconclusive: 10 µM [inhibitor, partial curve, poor fit].

With `O=C(O)CN1C(=O)/C(=C\c2ccccc2OCc2ccc(Cl)cc2Cl)SC1=S` as the compound, how does the Potency read?
The Potency was inconclusive: 15.8 µM [inhibitor, partial curve, poor fit].

For `CCN(CC)c1ccc2nc3ccccc3[n+](CC)c2c1`, which Potency is on record?
Its Potency is inconclusive: 17.8 µM [inhibitor, partial curve, poor fit].

With `Cc1ccc(CSC2=Nc3ccccc3C3=NC(CC(=O)NCc4ccco4)C(=O)N23)cc1` (stereo unspecified) as the compound, how does the Potency read?
Its Potency is inconclusive: 10 µM [inhibitor, partial curve, poor fit].

With `Cc1cccc(OCC(=O)N/N=C/C=C/c2ccco2)c1` as the compound, how does the Potency read?
The Potency was inconclusive: 6.31 µM [inhibitor, partial curve, poor fit].

Which Potency does the source give for `CCOC(=O)c1c(-c2ccc(C)o2)csc1NC(=O)COC(=O)c1ccc(NC(N)=O)cc1` here?
Its Potency is “inactive”.

Which Potency does the source give for `Cc1ccc(C)c(OCC(=O)Nc2cc(NC(=O)COc3cc(C)ccc3C)cc(C(=O)O)c2)c1` here?
Its Potency is inconclusive: 22.4 µM [inhibitor, partial curve, poor fit].

Which Potency does the source give for `O=C(O)c1cccc2c1C(=O)c1ccc(-c3ccc(F)cc3OCc3ccccc3)cc1S2(=O)=O` here?
The Potency was inconclusive: 14.1 µM [inhibitor, partial curve, poor fit].

For `NS(=O)(=O)c1ccc(NC(=O)CN2CCCCC2)cc1`, which Potency is on record?
Its Potency is “inactive”.

With `O=C(O)C1Nc2c(O)cc(Cl)c([N+](=O)[O-])c2C2C=CCC12` (stereo unspecified) as the compound, how does the Potency read?
The Potency was inconclusive: 8.91 µM [inhibitor, partial curve, poor fit].

With `COc1ccc(-c2nnn(CC(=O)N3CCOCC3)n2)cc1` as the compound, how does the Potency read?
Its Potency is “inactive”.

Which Potency does the source give for `CC(C)Oc1ccc(C(=O)Nc2ccc(N3CCCC3)cc2)cc1` here?
Its Potency is inconclusive: 25.1 µM [inhibitor, single point].

Which Potency does the source give for `COc1ccc(-c2nnc(Nc3ccc(S(=O)(=O)Nc4nccs4)cc3)c3ccccc23)cc1` here?
Its Potency is inconclusive: 20 µM [inhibitor, single point].

Which Potency does the source give for `CCCCCCCCCCOC(=O)Cn1c(COc2ccccc2OC)[n+](C)c2ccccc21` here?
Its Potency is inconclusive: 28.2 µM [inhibitor, single point].

Which Potency does the source give for `Cc1ccc(C(=O)N(C)CC(=O)Nc2cccc(C)c2C)o1` here?
Its Potency is “inactive”.

Which Potency does the source give for `NC(=O)c1c(NC(=O)CSc2nnc(-c3ccco3)n2-c2ccccc2)sc2c1CCC2` here?
Its Potency is inconclusive: 6.31 µM [inhibitor, partial curve, poor fit].

With `Cc1cccc(NC(=O)NCc2ccc3c(c2)cc(C)n3C)c1` as the compound, how does the Potency read?
Its Potency is inconclusive: 25.1 µM [inhibitor, single point].

For `Cc1cc(=O)n2[nH]c(-c3sccc3-n3c(C)ccc3C)cc2n1`, which Potency is on record?
The Potency was inconclusive: 12.6 µM [inhibitor, partial curve, poor fit].

Which Potency does the source give for `COC(=O)c1[nH]c2cc(OC)ccc2c1N` here?
Its Potency is “inactive”.

For `COc1ccc(C(=O)CSc2nnc(-c3ccco3)c(-c3ccco3)n2)cc1`, which Potency is on record?
Its Potency is active: 6.31 µM.

Which Potency does the source give for `C#CCOCCOCCOCCNc1nc(N2CCN(C(=O)CCCCCCCCCCNC(=O)[C@H](CCCCN)n3cc(CCO)nn3)CC2)nc(N2CCN(C(=O)CCCCCCCCCCNC(=O)[C@H](CCCCN)n3cc(C[C@@H](C)CC)nn3)CC2)n1` here?
The Potency was inconclusive: 7.08 µM [inhibitor, partial curve, poor fit].

Which Potency does the source give for `COC(=O)c1[nH]c2ccc(C)cc2c1NC(=O)CN1CCCc2ccccc21` here?
The Potency was active: 10 µM.

For `Cc1ccc(C(=O)NCCCc2ccccc2)s1`, which Potency is on record?
The Potency was “inactive”.

With `N#Cc1c(SCC(=O)Nc2nncs2)sc2c(O)cc(=O)[nH]c12` as the compound, how does the Potency read?
Its Potency is inconclusive: 22.4 µM [inhibitor, single point].

Which Potency does the source give for `O=C1Nc2ccccc2SC(c2ccccc2)C1O` (stereo unspecified) here?
The Potency was active: 7.94 µM.

With `O=C1NC(=Nc2ccccc2)S/C1=C\C=C\c1ccco1` as the compound, how does the Potency read?
The Potency was inconclusive: 7.08 µM [inhibitor, partial curve, poor fit].

With `CN(C)c1ccc(/C=C(/NC(=O)c2ccccc2)C(=O)N/N=C/c2ccc([N+](=O)[O-])c(O)c2)cc1` as the compound, how does the Potency read?
Its Potency is inconclusive: 12.6 µM [inhibitor, single point].

With `Cc1ccc(C2(C)NC(=O)N(CC(=O)c3ccc(Cl)s3)C2=O)cc1` (stereo unspecified) as the compound, how does the Potency read?
The Potency was inconclusive: 14.1 µM [inhibitor, single point].

Which Potency does the source give for `O=C(Nc1nc(-c2ccco2)c(-c2ccco2)s1)c1ccc(F)cc1F` here?
Its Potency is active: 10 µM.

For `Nc1c(C(=O)NC2CC2)sc2nc3c(c(-c4ccco4)c12)CC/C3=C/c1ccco1`, which Potency is on record?
The Potency was active: 2.24 µM.

For `O=C(Nc1ccc(N2CCCC2)cc1)c1cccc(-c2cc3ccccc3oc2=O)c1`, which Potency is on record?
Its Potency is “inactive”.
